Assay results taken from the RNAGym collection of RNA variant scans (doi:10.7554/elife.90254).
The source gives no read counts; variants with many changes may rest on few reads.

B1: LINE1-mini (parent)
chain: GGCAGAGCUCAACACAGCGUGGCAAAGUGGCUGUGGCUAGACUGCC

Variants of: B1
Assay: self-cleavage, relative activity (ratio to wild type); higher = more cleavage; in vitro, sequencing; the parent is a self-cleaving ribozyme

Row | Variant | self-cleavage
1 | C3G C10U G21U G33C A41U | 0.04
2 | G7U U9C G35U A39C | 0.08
3 | G7U C13G U28C G35C | 0.05
4 | A6U G22U C23U G35A G40U | 0.84
5 | G1A U20A G27U G44U C46A | 0.02
6 | A12C G21A U34C A39U C42A | 0.01
7 | U20G G36A A41U | 0.25
8 | G1U A14G G19U U28C A39G | 0.03
9 | G5A C8A A12G A39U | 0.03
10 | A11G U20G G29C G35A | 0.01
11 | G1A C10G A16U U20G G22C | 0.07
12 | A16C G33U G44U | 0.1
13 | G22A A26C C37A C45A | 0.02
14 | G5C U28C U34G G44A | 0.03
15 | G30U C45G C46A | 0.32
16 | C15G G30U C31U G44U | 0.01
17 | A16G G33C G44U | 0
18 | U9G A11C C15G G19C G22C C42G | 0
19 | G7C C10U G29U G30U | 0.06
20 | G30A U34G C45A | 0.05
21 | U9A U20C G21U U38A G44C | 0.02
22 | G5C G7A C10G A24U G33U | 0.02
23 | C18U G21A C23U | 0.35
24 | C10G A16G C18A U28C C42U C46G | 0

Row | Variant | self-cleavage
25 | C13A G21U G40A | 0.03
26 | G2A A14C G33A | 0.13
27 | G2A U9C G33C | 0.05
28 | C3A C10U G29U C31A C42A | 0.04
29 | A11U U34G G36U | 0.01
30 | G1U C15U A16U G29A C31U | 0.04
31 | A16G G19C G22C U32C U38A U43C | 0
32 | G1C A16C C18U U32A G33A A39G | 0.02
33 | A11G G40C C46U | 0.02
34 | G22U G27C C42U | 1.26
35 | A11U C13A G27A G30U C46A | 0.05
36 | G7A U32G U34G C42A | 0.01
37 | C3U C8U U9G G19U G36U U38C | 0.05
38 | C15U C18A G22C A26G | 0.05
39 | C10A G29A G30A G40U | 0.02
40 | C3G G5C C15G | 0.05
41 | C8G G19U C31U G35U | 0.02
42 | G2A C3A A6C A11C A12U C13U C23U C37A G40A | 0.04
43 | G7U G17A U32C U43A | 0.13
44 | G2U A11U A25U G35A | 0.03
45 | U9A C31A G40C | 0.04
46 | C8A G30A G44U | 0.16
47 | G5A A6C G35C | 0.03
48 | G1C G2A G19U | 0.09

Row | Variant | self-cleavage
49 | A6U C10U C31G C45U | 0.21
50 | G22A A24G G30U | 0.14
51 | G22C A25U G35C | 0.2
52 | C13G A14G G17U C23A G30U | 0.02
53 | C8G A11U A26C G40U | 0.01
54 | A14C G21A U28G G35C G36U | 0.08
55 | A4C G7C C13U G44U | 0.48
56 | G19U A25G C31G | 0.01
57 | C13G A24C C31G | 0.02
58 | G2C A4U A6U | 0.02
59 | C8U A11C G17C | 0.02
60 | A4C U20C U34A | 0.04
61 | A12U C23G A24C G44C | 0.08
62 | G1U C15G G27C G29C C37A | 0.01
63 | C18G G27U G36U A39U U43G | 0.26
64 | G30U G35U A39U | 0.05
65 | C8U A16G A25U G30C G35U C42U | 0.01
66 | C10U A12C C42U | 0.06
67 | G2U C3U G17U G40U C46A | 0.04
68 | C23G A24C A25C G29C | 0.2
69 | C3U A14C U28G G29U A39G | 0.03
70 | G5A A6G C15A G40C | 0.06
71 | G5C C10A A11U G35A | 0.03
72 | G1U G33U C42U C46U | 0.06

Row | Variant | self-cleavage
73 | C3U A6G G7A G21U C42A | 0.24
74 | C3G C37U U43C | 0.07
75 | C15A G40A C42G | 0.06
76 | G5U C10A G17U C31A G33A C37A | 0.01
77 | A26G G27U G30U G44A | 0.11
78 | G1C C10A G22C U32G | 0.01
79 | G7C C15G A25U G27A G30U G36C | 0.01
80 | A12U C15U U20G G22C G29U G30U C37G | 0
81 | A4G C10G G35C A39U A41C C45U | 0.01
82 | A4G G17U A41U C45A | 0
83 | A4G G21A U32C A39G | 0.12
84 | G17U A25C G29A | 0.38
85 | A12U G40U C45G | 0.17
86 | A12C C13G C37A | 0.01
87 | G19C C31U C37U U38C C46A | 0.01
88 | G5C A6U G21U C46U | 0.02
89 | A12G C13A C37U C46A | 0.03
90 | C10A G19C U20C A41U | 0.02
91 | G2A G7C A39C G40A | 0.04
92 | G7A U20A G27U G30C C31G C46A | 0.05
93 | G5C C23G A39G | 0.01
94 | C23G A24U U28G G30U A39U | 0.6
95 | G27C U28G A41C C45A | 0.06
96 | C15G G33C G44A | 0.03

Row | Variant | self-cleavage
97 | A6U C8A G27U | 0.19
98 | C8G A11G A12C C15U G40C | 0.01
99 | G2C G27U G44A | 0.16
100 | G1U A4U A12C A14U G21A G22U | 0.03
101 | A4G C13A G17A | 0.01
102 | G5C U20G G22C | 0.05
103 | U34C C37A A41G C45U | 0.02
104 | G19A G21A U32A C46A | 0.59
105 | C3U C13A C23U U43A G44U | 0.06
106 | G29A G35C U38A C42G G44C | 0.05
107 | U9A G27A G35A | 0.42
108 | G1C A6U G22A G36U | 0.03
109 | A4G A11G G35U | 0.03
110 | C13A A25U C46U | 0.1
111 | U28A C37G C42G | 0.02
112 | G2A A6G C8A G17U G30A C45U | 0.19
113 | G7C C10A A12C A25C U34C | 0
114 | G1A C8A G19C U28G C42U | 0.42
115 | G7C C10U C15U U20A G30U | 0.06
116 | G5A A26G G29U G36U | 0.11
117 | G1A C13G A16U C31A C45A | 0.06
118 | C8U G27C U28A G30U | 0.06
119 | U34C C37A U38G C42A | 0.02
120 | C23A A25U A26U | 1.18

Row | Variant | self-cleavage
121 | G7A C15G A25U U32G | 0.23
122 | G2A G22A A26G G36C G40U | 0.05
123 | C8U U9G A16G G22A G30C C45U | 0.12
124 | A12C G21U U43C | 0.01
125 | G7U A25U C37A | 0.11
126 | G1C G7C A14U | 0.02
127 | A14G C15A C23U G27U U32C | 0.05
128 | G2U C3G U9C G17C A24C C31U A39G U43C | 0.01
129 | A14U G17A G36C G40U | 0.07
130 | G2A C37A G44U | 0.3
131 | G1U C15U G22C G33U | 0.01
132 | G5C U20C C23G C45G C46U | 0.04
133 | G2A A11G C13U G29U U34C | 0.05
134 | G5C A16G A24G G27U G40C | 0.36
135 | G2U A26G G44U | 0.12
136 | G5A G7A A12C G40A | 0.11
137 | A6U C13A U34A U43A | 0.12
138 | G1U U9A A14C U20C | 0.03
139 | G2A C18A A25G | 0.15
140 | A26U G27C U32A G35C | 0.05
141 | G2U C18G U32A G36C | 0.02
142 | G30U U43A G44U | 0
143 | C15U G35U C37G | 1.03
144 | G1A C15A C31U | 0

Row | Variant | self-cleavage
145 | A4C A16G C23U U32C C42G G44C | 0.04
146 | G36A C42U C45U | 0.06
147 | G40U C42A C46A | 0.06
148 | G2A A14C G35U C45A | 0.05
149 | G5A U9C A41U | 0.03
150 | C10G C18G C37A C42A | 0
151 | A11C A14C C18A | 0.02
152 | A11C G17U A25C C42U | 0.03
153 | U9C A11G C42G | 0.02
154 | C3G U38G G40A C46A | 0.03
155 | G1C G2U G7U U9A G22A C23A G40U | 0.02
156 | G1U C3A G44A | 0.72
157 | G2A G7U U9C A12U C13G A24G G33A G35U | 0.02
158 | A25G A41C C42G | 0.01
159 | A11C U20A G35C | 0.02
160 | G2U U20G C46G | 0.21
161 | C10A A11G C15A U32A C42U | 0.01
162 | G5U G7U C8G A11C U28A C45U | 0.02
163 | G19A C23G G30U U38C A39G | 0.05
164 | A4G A14C A25C G33U C42U | 0.07
165 | A14G C15A C45U | 0.05
166 | A6U G35A C37A G40A | 0.12
167 | C8G C23A G35U G44A | 0.52
